Positions count from the first letter of the chain named. Some of the results follow.

Drawing on PMC9911399, “Two distinct binding modes provide the RNA-binding protein RbFox with extraordinary sequence specificity”, this text covers binding signal for 31 molecules.

The chains are these.
B1: AUAACCG (DNA:RNA)
RNA: GGGAGACCGGAAUUCAGAUUGUCCAUAACCGUUAAAUCCCGUCGUAGCCACCA
DNA 1: CAATCTGAATTCCGGTCTCCC
DNA 2: TGGTGGCTACGACGGGATT
B2: AUUUAAU (DNA:RNA)
RNA: B1 RNA with A27U, A28U, C29A, C30A, G31U
DNA 1: CAATCTGAATTCCGGTCTCCC
DNA 2: TGGTGGCTACGACGGGATT
B3: CAUCUAC (DNA:RNA)
RNA: GGGAGACCGGAAUUCAGAUUGUCCCAUCUACUUAAAUCCCGUCGUAGCCACCA
DNA 1: CAATCTGAATTCCGGTCTCCC
DNA 2: TGGTGGCTACGACGGGATT
B4: GCGGAAC (DNA:RNA)
RNA: B3 RNA with C25G, A26C, U27G, C28G, U29A
DNA 1: CAATCTGAATTCCGGTCTCCC
DNA 2: TGGTGGCTACGACGGGATT
B5: UAGAGCG (DNA:RNA)
RNA: B1 RNA with A25U, U26A, A27G, C29G
DNA 1: CAATCTGAATTCCGGTCTCCC
DNA 2: TGGTGGCTACGACGGGATT
B6: AUGGUCU (DNA:RNA)
RNA: B1 RNA with A27G, A28G, C29U, G31U
DNA 1: CAATCTGAATTCCGGTCTCCC
DNA 2: TGGTGGCTACGACGGGATT
B7: AACUUGA (DNA:RNA)
RNA: B3 RNA with C25A, U27C, C28U, A30G, C31A
DNA 1: CAATCTGAATTCCGGTCTCCC
DNA 2: TGGTGGCTACGACGGGATT
B8: UUAGACG (DNA:RNA)
RNA: B1 RNA with A25U, A28G, C29A
DNA 1: CAATCTGAATTCCGGTCTCCC
DNA 2: TGGTGGCTACGACGGGATT
B9: CAACUAC (DNA:RNA)
RNA: B3 RNA with U27A
DNA 1: CAATCTGAATTCCGGTCTCCC
DNA 2: TGGTGGCTACGACGGGATT
B10: CGGUAUU (DNA:RNA)
RNA: B3 RNA with A26G, U27G, C28U, U29A, A30U, C31U
DNA 1: CAATCTGAATTCCGGTCTCCC
DNA 2: TGGTGGCTACGACGGGATT
B11: GCGCGCC (DNA:RNA)
RNA: B3 RNA with C25G, A26C, U27G, U29G, A30C
DNA 1: CAATCTGAATTCCGGTCTCCC
DNA 2: TGGTGGCTACGACGGGATT
B12: CCGGUUC (DNA:RNA)
RNA: B3 RNA with A26C, U27G, C28G, A30U
DNA 1: CAATCTGAATTCCGGTCTCCC
DNA 2: TGGTGGCTACGACGGGATT
B13: GCCCCCG (DNA:RNA)
RNA: B1 RNA with A25G, U26C, A27C, A28C
DNA 1: CAATCTGAATTCCGGTCTCCC
DNA 2: TGGTGGCTACGACGGGATT
B14: GGCCUAU (DNA:RNA)
RNA: B3 RNA with C25G, A26G, U27C, C31U
DNA 1: CAATCTGAATTCCGGTCTCCC
DNA 2: TGGTGGCTACGACGGGATT
B15: UCAUUUA (DNA:RNA)
RNA: B1 RNA with A25U, U26C, A28U, C29U, C30U, G31A
DNA 1: CAATCTGAATTCCGGTCTCCC
DNA 2: TGGTGGCTACGACGGGATT
B16: AUAAACA (DNA:RNA)
RNA: B1 RNA with C29A, G31A
DNA 1: CAATCTGAATTCCGGTCTCCC
DNA 2: TGGTGGCTACGACGGGATT
B17: AAGCCUA (DNA:RNA)
RNA: B1 RNA with U26A, A27G, A28C, C30U, G31A
DNA 1: CAATCTGAATTCCGGTCTCCC
DNA 2: TGGTGGCTACGACGGGATT
B18: ACCAUUG (DNA:RNA)
RNA: B1 RNA with U26C, A27C, C29U, C30U
DNA 1: CAATCTGAATTCCGGTCTCCC
DNA 2: TGGTGGCTACGACGGGATT
B19: UAAGAUA (DNA:RNA)
RNA: B1 RNA with A25U, U26A, A28G, C29A, C30U, G31A
DNA 1: CAATCTGAATTCCGGTCTCCC
DNA 2: TGGTGGCTACGACGGGATT
B20: UACUAAG (DNA:RNA)
RNA: B3 RNA with C25U, U27C, C28U, U29A, C31G
DNA 1: CAATCTGAATTCCGGTCTCCC
DNA 2: TGGTGGCTACGACGGGATT
B21: GGCGUGA (DNA:RNA)
RNA: B3 RNA with C25G, A26G, U27C, C28G, A30G, C31A
DNA 1: CAATCTGAATTCCGGTCTCCC
DNA 2: TGGTGGCTACGACGGGATT
B22: UUUCCCA (DNA:RNA)
RNA: B1 RNA with A25U, A27U, A28C, G31A
DNA 1: CAATCTGAATTCCGGTCTCCC
DNA 2: TGGTGGCTACGACGGGATT
B23: GGUGCUU (DNA:RNA)
RNA: B1 RNA with A25G, U26G, A27U, A28G, C30U, G31U
DNA 1: CAATCTGAATTCCGGTCTCCC
DNA 2: TGGTGGCTACGACGGGATT
B24: ACUCCCU (DNA:RNA)
RNA: B1 RNA with U26C, A27U, A28C, G31U
DNA 1: CAATCTGAATTCCGGTCTCCC
DNA 2: TGGTGGCTACGACGGGATT
B25: GGUAUAU (DNA:RNA)
RNA: B3 RNA with C25G, A26G, C28A, C31U
DNA 1: CAATCTGAATTCCGGTCTCCC
DNA 2: TGGTGGCTACGACGGGATT
B26: UAGGAAU (DNA:RNA)
RNA: B3 RNA with C25U, U27G, C28G, U29A, C31U
DNA 1: CAATCTGAATTCCGGTCTCCC
DNA 2: TGGTGGCTACGACGGGATT
B27: ACUAAGC (DNA:RNA)
RNA: B1 RNA with U26C, A27U, C29A, C30G, G31C
DNA 1: CAATCTGAATTCCGGTCTCCC
DNA 2: TGGTGGCTACGACGGGATT
B28: GUCCGCC (DNA:RNA)
RNA: B1 RNA with A25G, A27C, A28C, C29G, G31C
DNA 1: CAATCTGAATTCCGGTCTCCC
DNA 2: TGGTGGCTACGACGGGATT
B29: GGUGGUA (DNA:RNA)
RNA: B3 RNA with C25G, A26G, C28G, U29G, A30U, C31A
DNA 1: CAATCTGAATTCCGGTCTCCC
DNA 2: TGGTGGCTACGACGGGATT
B30: AGGGCUG (DNA:RNA)
RNA: B1 RNA with U26G, A27G, A28G, C30U
DNA 1: CAATCTGAATTCCGGTCTCCC
DNA 2: TGGTGGCTACGACGGGATT
B31: AGCGCUU (DNA:RNA)
RNA: B1 RNA with U26G, A27C, A28G, C30U, G31U
DNA 1: CAATCTGAATTCCGGTCTCCC
DNA 2: TGGTGGCTACGACGGGATT

The target of this assay is T1, RBFOX1 RRM RbFoxmut (Fox-RRM*) (Homo sapiens, UniProt Q9NWB1 109-208, R118D;E147R;N151S;E152T).
T1 sequence: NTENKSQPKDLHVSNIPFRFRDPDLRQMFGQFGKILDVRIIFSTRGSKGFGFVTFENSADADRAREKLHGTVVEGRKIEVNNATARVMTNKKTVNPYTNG
Put plainly: EMSA; HiTS-Eq, 1 nM pool, 10 min; buffer printed only for the single-RNA assays: 10 mM Tris pH 7.5, 150 mM NaCl, 3.4 mM EDTA, 0.001% NP-40, 30 C. To be noted: tags: His6 N-terminal (pET28a); label: 5' 32P. The method, boiled down: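 A pool of RNA with 7 randomized nucleotides, 5′-radiolabelled and with DNA-annealed flanks, was equilibrated at 1 nM for 10 min in 50 µL with purified RbFox RRM, wild type or mutant, across increasing protein concentrations. Free RNA was separated by 8% native PAGE, excised, reverse-transcribed, barcoded by PCR and sequenced. Relative association constants were obtained from read-count changes of each RNA species versus the control reaction and normalised to the cognate motif.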
A general note: In EMSA bound probe runs differently from free probe, usually more slowly.
For B1, the binding signal was 0.159 KA relative to UGCAUGU.

Consider B2, for which the binding signal is 0.0921 KA relative to UGCAUGU.

As for B3, the binding signal was 0.105 KA relative to UGCAUGU.

Turning to B4, the binding signal was 0.0741 KA relative to UGCAUGU.

B5: the binding signal was 0.111 KA relative to UGCAUGU.

For the molecule B6, the binding signal is 0.095 KA relative to UGCAUGU.

As to B7, the binding signal was 0.0966 KA relative to UGCAUGU.

Regarding B8, the binding signal was 0.0693 KA relative to UGCAUGU.

With B9, the binding signal was 0.0756 KA relative to UGCAUGU.

As to B10, the binding signal is 0.11 KA relative to UGCAUGU.

As for B11, the binding signal is 0.137 KA relative to UGCAUGU.

In the case of B12, the binding signal is 0.0893 KA relative to UGCAUGU.

For the molecule B13, the binding signal is 0.0676 KA relative to UGCAUGU.

For B14, the binding signal is 0.0696 KA relative to UGCAUGU.

With B15, the binding signal is 0.15 KA relative to UGCAUGU.

In the case of B16, the binding signal was 0.124 KA relative to UGCAUGU.

On to B17, for which the binding signal is 0.0959 KA relative to UGCAUGU.

Turning to B18, the binding signal is 0.112 KA relative to UGCAUGU.

As for B19, the binding signal is 0.0797 KA relative to UGCAUGU.

For B20, the binding signal is 0.0755 KA relative to UGCAUGU.

For the molecule B21, the binding signal is 0.107 KA relative to UGCAUGU.

Turning to B22, the binding signal is 0.0641 KA relative to UGCAUGU.

B23: the binding signal is 0.0728 KA relative to UGCAUGU.

As to B24, the binding signal is 0.0521 KA relative to UGCAUGU.

As for B25, the binding signal is 0.101 KA relative to UGCAUGU.

In the case of B26, the binding signal is 0.11 KA relative to UGCAUGU.

B27: the binding signal was 0.109 KA relative to UGCAUGU.

Consider B28, for which the binding signal was 0.105 KA relative to UGCAUGU.

Take B29: the binding signal was 0.149 KA relative to UGCAUGU.

With B30, the binding signal was 0.275 KA relative to UGCAUGU.

For the molecule B31, the binding signal is 0.0939 KA relative to UGCAUGU.
